Results reported in paper PMC11714167.
These are yes or no findings as the source states them, for the method shown. In cells and extracts the contact can be indirect. Some entries that bind do so weakly or less than the wild type. For some assays here: Tags and fused reporters may be left off the sequences shown.

Amino acid sequences for entries named in this document (tags omitted). A change or cut given only in a name is not applied to a line headed by its entry. Residues count along the entry.
UniProt P19474: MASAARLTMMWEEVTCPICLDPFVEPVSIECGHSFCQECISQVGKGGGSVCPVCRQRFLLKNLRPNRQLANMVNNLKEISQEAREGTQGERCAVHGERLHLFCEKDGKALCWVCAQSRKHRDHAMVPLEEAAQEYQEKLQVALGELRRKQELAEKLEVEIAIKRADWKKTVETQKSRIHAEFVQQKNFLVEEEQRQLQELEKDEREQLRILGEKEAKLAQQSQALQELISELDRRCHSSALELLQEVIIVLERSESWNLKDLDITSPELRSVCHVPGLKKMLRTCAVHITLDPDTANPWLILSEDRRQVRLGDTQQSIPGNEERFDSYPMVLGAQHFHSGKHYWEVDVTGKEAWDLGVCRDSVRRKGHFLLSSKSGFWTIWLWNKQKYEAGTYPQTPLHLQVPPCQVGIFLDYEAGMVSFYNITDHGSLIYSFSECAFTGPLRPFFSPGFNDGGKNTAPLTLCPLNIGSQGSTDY
TRIM21 PRY-SPRY domain: residues 287-465 of P19474
UniProt Q9NZQ7, residues 19-290: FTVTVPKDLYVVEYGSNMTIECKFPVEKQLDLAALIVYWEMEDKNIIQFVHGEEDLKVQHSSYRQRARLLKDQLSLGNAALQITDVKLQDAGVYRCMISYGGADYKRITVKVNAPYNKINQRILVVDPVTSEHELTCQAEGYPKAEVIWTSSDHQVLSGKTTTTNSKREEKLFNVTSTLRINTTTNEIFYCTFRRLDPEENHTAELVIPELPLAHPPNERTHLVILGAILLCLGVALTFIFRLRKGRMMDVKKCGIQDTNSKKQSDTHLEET

Experiments:
[1] = target: T1, STAMBPL1-USP8_dimer (human) (UniProt Q96FJ0); assay: co-IP; AXL deletion mutants (AXL-ΔIC, AXL-ΔEC+TM) with STAMBPL1-USP8_dimer (Figure S12B) or the TRIM21 PRY-SPRY domain (Figure S16B); cells and tags not given
T1 sequence: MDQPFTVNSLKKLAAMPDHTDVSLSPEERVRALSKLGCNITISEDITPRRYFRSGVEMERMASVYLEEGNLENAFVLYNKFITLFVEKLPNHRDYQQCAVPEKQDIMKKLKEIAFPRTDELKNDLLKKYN

[2] = target: TRIM21 PRY-SPRY domain (human) (UniProt P19474); assay: as above
[3] = target: AXL (endogenous) (human (endogenous in 786-O, 769-P, Caki-1)) (UniProt P30530); assay: co-IP; co-IP of TRIM21 with endogenous AXL in 786-O cells transfected with empty vector or Flag-tagged STAMBPL1 vector; conversely STAMBPL1 KD (Figure S18F)
[4] = target: AXL (endogenous) (human (endogenous in 786-O, 769-P, Caki-1)) (UniProt P30530); assay: co-IP; co-IP of AXL with NF-κB signalling proteins (Figure S24A,B) and of AKT with IKKα (Figure S24D); cells not given
[5] = target: PD-L1 (human (endogenous in KIRC cells)) (UniProt Q9NZQ7); assay: co-IP; endogenous proteins; whole-cell extracts of KIRC cell lines (786-O, 769-P, Caki-1) immunoprecipitated with specific antibody or control IgG, protein A/G beads, washed four times with lysis buffer (20 mM Tris-HCl, 125 mM NaCl, 5 mM MgCl2, 0.2 mM EDTA, 0.1% NP-40); STAMBPL1/AXL also after Gas6 (500 ng/mL, 6 h), unaffected; AXL with HRS, STAM1, STAM2 stronger with K63-ubiquitin overexpression, STAMBPL1 KD or TRIM21 overexpression
[6] = target: TRIM21 (endogenous) (human (endogenous in 786-O, 769-P, Caki-1)) (UniProt P19474); assay: as above

B1: AXL-ΔEC+TM (domain or fragment, UniProt P30530 473-894)
chain: HRRKKETRYGEVFEPTVERGELVVRYRVRKSYSRRTTEATLNSLGISEELKEKLRDVMVDRHKVALGKTLGEGEFGAVMEGQLNQDDSILKVAVKTMKIAICTRSELEDFLSEAVCMKEFDHPNVMRLIGVCFQGSERESFPAPVVILPFMKHGDLHSFLLYSRLGDQPVYLPTQMLVKFMADIASGMEYLSTKRFIHRDLAARNCMLNENMSVCVADFGLSKKIYNGDYYRQGRIAKMPVKWIAIESLADRVYTSKSDVWSFGVTMWEIATRGQTPYPGVENSEIYDYLRQGNRLKQPADCLDGLYALMSRCWELNPQDRPSFTELREDLENTLKALPPAQEPDEILYVNMDEGGGYPEPPGAAGGADPPTQPDPKDSCSCLTAAEVHPAGRYVLCPSTTPSPAQPADRGSPAAPGQEDGA
In the case of B1, the binding [1] is reported as “binds” and the binding [2] is reported as “binds”.

B2: Flag-tagged STAMBPL1 (786-O) (enzyme, UniProt Q96FJ0 1-436)
chain: MDQPFTVNSLKKLAAMPDHTDVSLSPEERVRALSKLGCNITISEDITPRRYFRSGVEMERMASVYLEEGNLENAFVLYNKFITLFVEKLPNHRDYQQCAVPEKQDIMKKLKEIAFPRTDELKNDLLKKYNVEYQEYLQSKNKYKAEILKKLEHQRLIEAERKRIAQMRQQQLESEQFLFFEDQLKKQELARGQMRSQQTSGLSEQIDGSALSCFSTHQNNSLLNVFADQPNKSDATNYASHSPPVNRALTPAATLSAVQNLVVEGLRCVVLPEDLCHKFLQLAESNTVRGIETCGILCGKLTHNEFTITHVIVPKQSAGPDYCDMENVEELFNVQDQHDLLTLGWIHTHPTQTAFLSSVDLHTHCSYQLMLPEAIAIVCSPKHKDTGIFRLTNAGMLEVSACKKKGFHPHTKEPRLFSICKHVLVKDIKIIVLDLR
B2 was tested, and the binding [3] was “binds”.

B3: TAK1 (enzyme, UniProt O43318 1-606)
chain: MSTASAASSSSSSSAGEMIEAPSQVLNFEEIDYKEIEVEEVVGRGAFGVVCKAKWRAKDVAIKQIESESERKAFIVELRQLSRVNHPNIVKLYGACLNPVCLVMEYAEGGSLYNVLHGAEPLPYYTAAHAMSWCLQCSQGVAYLHSMQPKALIHRDLKPPNLLLVAGGTVLKICDFGTACDIQTHMTNNKGSAAWMAPEVFEGSNYSEKCDVFSWGIILWEVITRRKPFDEIGGPAFRIMWAVHNGTRPPLIKNLPKPIESLMTRCWSKDPSQRPSMEEIVKIMTHLMRYFPGADEPLQYPCQYSDEGQSNSATSTGSFMDIASTNTSNKSDTNMEQVPATNDTIKRLESKLLKNQAKQQSESGRLSLGASRGSSVESLPPTSEGKRMSADMSEIEARIAATTAYSKPKRGHRKTASFGNILDVPEIVISGNGQPRRRSIQDLTVTGTEPGQVSSRSSSPSVRMITTSGPTSEKPTRSHPWTPDDSTDTNGSDNSIPMAYLTLDHQLQPLAPCPNSKESMAVFEQHCKMAQEYMKVQTEIALLLQRKQELVAELDQDEKDQQNTSRLVQEHKKLLDENKSLSTYYQQCKKQLEVIRSQQQKRQGTS
In the case of B3, the binding [4] is reported as “no binding”.

B4: TAB1 (protein, UniProt Q15750 1-504)
chain: MAAQRRSLLQSEQQPSWTDDLPLCHLSGVGSASNRSYSADGKGTESHPPEDSWLKFRSENNCFLYGVFNGYDGNRVTNFVAQRLSAELLLGQLNAEHAEADVRRVLLQAFDVVERSFLESIDDALAEKASLQSQLPEGVPQHQLPPQYQKILERLKTLEREISGGAMAVVAVLLNNKLYVANVGTNRALLCKSTVDGLQVTQLNVDHTTENEDELFRLSQLGLDAGKIKQVGIICGQESTRRIGDYKVKYGYTDIDLLSAAKSKPIIAEPEIHGAQPLDGVTGFLVLMSEGLYKALEAAHGPGQANQEIAAMIDTEFAKQTSLDAVAQAVVDRVKRIHSDTFASGGERARFCPRHEDMTLLVRNFGYPLGEMSQPTPSPAPAAGGRVYPVSVPYSSAQSTSKTSVTLSLVMPSQGQMVNGAHSASTLDEATPTLTNQSPTLTLQSTNTHTQSSSSSSDGGLFRSRPAHSLPPGEDGRVEPYVDFAEFYRLWSVDHGEQSVVTAP
In the case of B4, the binding [4] is reported as “no binding”.

B5: STAM Binding Protein Like 1 (endogenous) (enzyme, UniProt Q96FJ0 1-436)
chain: B2 chain
In the case of B5, the binding [5] is reported as “no binding” and the binding [6] is reported as “no binding”.

B6: IKKβ (enzyme, UniProt O14920 1-756)
chain: MSWSPSLTTQTCGAWEMKERLGTGGFGNVIRWHNQETGEQIAIKQCRQELSPRNRERWCLEIQIMRRLTHPNVVAARDVPEGMQNLAPNDLPLLAMEYCQGGDLRKYLNQFENCCGLREGAILTLLSDIASALRYLHENRIIHRDLKPENIVLQQGEQRLIHKIIDLGYAKELDQGSLCTSFVGTLQYLAPELLEQQKYTVTVDYWSFGTLAFECITGFRPFLPNWQPVQWHSKVRQKSEVDIVVSEDLNGTVKFSSSLPYPNNLNSVLAERLEKWLQLMLMWHPRQRGTDPTYGPNGCFKALDDILNLKLVHILNMVTGTIHTYPVTEDESLQSLKARIQQDTGIPEEDQELLQEAGLALIPDKPATQCISDGKLNEGHTLDMDLVFLFDNSKITYETQISPRPQPESVSCILQEPKRNLAFFQLRKVWGQVWHSIQTLKEDCNRLQQGQRAAMMNLLRNNSCLSKMKNSMASMSQQLKAKLDFFKTSIQIDLEKYSEQTEFGITSDKLLLAWREMEQAVELCGRENEVKLLVERMMALQTDIVDLQRSPMGRKQGGTLDDLEEQARELYRRLREKPRDQRTEGDSQEMVRLLLQAIQSFEKKVRVIYTQLSKTVVCKQKALELLPKVEEVVSLMNEDEKTVVRLQEKRQKELWNLLKIACSKVRGPVSGSPDSMNASRLSQPGQLMSQPSTASNSLPEPAKKSEELVAEAHNLCTLLENAIQDTVREQDQSFTALDWSWLQTEEEEHSCLEQAS
With B6 the binding [4] was “no binding”.
